{"source": "PubChem BioAssay AID504832", "about": "(National Center for Advancing Translational Sciences (NCATS), 2011)", "note": "Screen size: about 310,000 compounds; about 18,000 (5.8%) were called active. Inconclusive results, whose numbers are uncertain, are shown with a selection of clear calls. The call rests on the fitted dose curve; in most records, active means well fitted inhibition curve with a large enough effect; inconclusive means small, poorly fitted or top-dose-only effect, or another doubt; inactive means no such curve, though single readings can be large or run the other way. No potency is given beside an inconclusive call; the fits are too rough. The source holds several records for some structures; these can differ, active in one and inactive in another. Potency means the concentration at half of the fitted maximal effect; tags describe the fitted curve by direction and shape."}
{"test": "Primary qHTS for delayed death inhibitors of the malarial parasite plastid, 48 hour incubation", "settings": "P. falciparum luciferase growth in erythrocytes; series mostly up to 28.7 µM", "outline": "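Growth was read as firefly luciferase luminescence after a 48 h, 37 C, 5% CO2 exposure of compounds to reporter-bearing P. falciparum cultures (0.1% parasitemia, 2% hematocrit final) in Albumax-supplemented RPMI 1640.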"}
{"molecule": "COc1cccc(C2=Nn3c(nnc3-c3ccccc3O)SC2)c1", "Potency": "active: 13.1 µM"}
{"molecule": "CCC1CCCCN1S(=O)(=O)c1ccc(NC(=O)c2cccs2)cc1", "note": "(centres undefined)", "Potency": "active: 2.33 µM"}
{"molecule": "O=C(Nc1ccc2c(c1)N(Cc1ccccc1)C(=O)c1ccccc1S2)NC1CC1", "Potency": "active: 6.57 µM"}
{"molecule": "COc1cccc(-c2nnc(NC(=O)c3cccs3)s2)c1", "Potency": "inactive"}
{"molecule": "c1ccc2c(CN3CCCCCC3)c[nH]c2c1", "Potency": "inactive"}
{"molecule": "CC(=O)c1cccc(N(C(=O)CNC(=O)c2cccs2)C(C(=O)NCC2CCCO2)c2ccccc2)c1", "note": "(centres undefined)", "Potency": "inconclusive [inhibitor, full curve, poor fit]"}
{"molecule": "CCCN(CCC)C(=O)c1cc2c(=O)[nH]c3ccc(C)cc3c2s1", "Potency": "inconclusive [inhibitor, single point]"}
{"molecule": "Cc1ccc2c(c1)c(Sc1ccccc1)c(CC(=O)O)n2C", "Potency": "inactive"}
{"molecule": "COc1cc(/C=N/NC2=NS(=O)(=O)c3ccccc32)cc(OC)c1OC", "Potency": "inconclusive [inhibitor, single point]"}
{"molecule": "O=C(NC1CCN(CCc2c[nH]c3ccccc23)CC1)c1ccccc1", "Potency": "active: 15.1 µM"}
{"molecule": "COc1ccc(C)cc1NC1=C(Cl)C(=O)N(C2CCCCC2)C1=O", "Potency": "inconclusive [inhibitor, full curve, poor fit]"}
{"molecule": "CN(C)c1ccc(C=NCC2COc3ccccc3O2)cc1", "note": "(centres undefined)", "Potency": "inactive"}
{"molecule": "O=C(NC1CCCCC1)C(c1ccncc1)N(Cc1ccc2c(c1)OCO2)C(=O)c1cnsn1", "note": "(centres undefined)", "Potency": "inconclusive [inhibitor, partial curve, poor fit]"}
{"molecule": "CCOc1ccccc1-c1nc(CN(Cc2cnn(C)c2)C(C)C)c(C)o1", "Potency": "inconclusive [inhibitor, single point]"}
{"molecule": "CN(C(=O)COc1ccc2ccc(=O)oc2c1)C1CCS(=O)(=O)C1", "note": "(centres undefined)", "Potency": "inactive"}
{"molecule": "CC(C)c1cc(C(=O)NCc2ccco2)no1", "Potency": "inactive"}
{"molecule": "CCC(CC)NC(=O)CO/N=C/c1ccc(Cl)cc1Cl", "Potency": "inconclusive [inhibitor, single point]"}
{"molecule": "CCCNC(=O)c1ccc2c(c1)S(=O)(=O)c1ccccc1C2=O", "Potency": "inconclusive [inhibitor, single point]"}
{"molecule": "O=C(CSc1ccc(-c2ccco2)nn1)Nc1ccc(F)cc1F", "Potency": "inactive"}
{"molecule": "CCOCCCNC(=S)NCCCNc1nc2c(C)c(C)ccc2cc1C#N", "Potency": "inconclusive [inhibitor, single point]"}
{"molecule": "CCN(C(=O)CSc1nnc(-c2ccc(F)cc2)c2ccccc12)C1CCS(=O)(=O)C1", "note": "(centres undefined)", "Potency": "inconclusive [inhibitor, single point]"}
{"molecule": "COc1cccc(C2C(C#N)=C(N)Oc3cc(C)oc(=O)c32)c1OC", "note": "(centres undefined)", "Potency": "inactive"}
{"molecule": "COc1ccc(CN(C)CC(=O)Nc2cc(OC)c([N+](=O)[O-])cc2C)c(OC)c1", "Potency": "inconclusive [inhibitor, single point]"}
{"molecule": "COc1ccc2[nH]c3c(N4CCc5ccccc5C4)ncnc3c2c1", "Potency": "inconclusive [inhibitor, partial curve]"}
{"molecule": "CC(C)(CO)Nc1nc(Nc2ccccc2)nc(Nc2ccccc2)n1", "Potency": "active: 13.1 µM"}
{"molecule": "Cc1ccc(C)c(Nc2cc(C(=O)NCc3cccnc3)c3ccccc3n2)c1", "Potency": "inconclusive [inhibitor, single point]"}
{"molecule": "CN(C(=O)c1cc2n(n1)C(C(F)(F)F)CC(c1ccco1)N2)c1ccc(OC(F)(F)F)cc1", "note": "(centres undefined)", "Potency": "inconclusive [inhibitor, single point]"}
{"molecule": "Cc1cccc(NS(=O)(=O)c2cccc(C(=O)NCc3ccccc3CN3CCOCC3)c2)c1", "Potency": "inconclusive [inhibitor, single point]"}
{"molecule": "CCC1(C)Cc2c(sc3nc(SCC(=O)O)[nH]c(=O)c23)CO1", "note": "(centres undefined)", "Potency": "inactive"}
{"molecule": "O=C(Nc1cccnc1)C1CCC(CNS(=O)(=O)c2cccc3nsnc23)CC1", "note": "(centres undefined)", "Potency": "inconclusive [inhibitor, partial curve, poor fit]"}
{"molecule": "CC1(C)O[C@@H]2[C@H](O1)[C@@H](COS(=O)(=O)O)O[C@H]2n1cnc2c(=O)[nH]cnc21", "Potency": "inactive"}
{"molecule": "CCC1(c2ccccc2)NC(=O)N(CC(=O)Nc2cc(S(=O)(=O)N3CCCCC3)ccc2OC(C)C)C1=O", "note": "(centres undefined)", "Potency": "active: 10.4 µM"}
{"molecule": "CC(=O)Nc1ccc(S(=O)(=O)NCCC(=O)N2CCN(C(c3ccccc3)c3ccccc3)CC2)cc1", "Potency": "active: 11.7 µM"}
{"molecule": "O=C(CN1C(=O)S/C(=C\\c2ccc(O)cc2)C1=O)c1ccccc1", "Potency": "inactive"}
{"molecule": "CC1CCCN(C2=C(NS(=O)(=O)c3ccc(Cl)cc3)C(=O)c3ccccc3C2=O)C1", "note": "(centres undefined)", "Potency": "inconclusive [inhibitor, single point]"}
{"molecule": "O=C(NCC1CCCO1)C(=O)NCC1CCCN1S(=O)(=O)c1ccccc1", "note": "(centres undefined)", "Potency": "inactive"}
{"molecule": "O=C(O)c1ccc(Nc2nc3ccc(Cl)cc3[nH]2)cc1", "Potency": "inactive"}
{"molecule": "O=C(CCC1CCCN(C(=O)COc2ccccc2)C1)N1CCN(c2ccccn2)CC1", "note": "(centres undefined)", "Potency": "active: 10.4 µM"}
{"molecule": "O=C(CN1CC(=O)Oc2ccccc21)OCC(=O)c1cccc(Br)c1", "Potency": "inconclusive [inhibitor, partial curve, poor fit]"}
{"molecule": "Cc1ccc(C(=O)CCC(=O)Nc2cc(C)ccn2)cc1", "Potency": "inconclusive [inhibitor, single point]"}
{"molecule": "NC(=O)[C@H]1CC2(CC(c3cccc(NC(=O)COc4ccc(Cl)cc4)c3)=NO2)CN1C(=O)C(c1ccccc1)c1ccccc1", "note": "(some centres undefined)", "Potency": "active: 13.1 µM"}
{"molecule": "C=CCN(C(=O)CC(NC(C)=O)c1ccccc1)c1nc(-c2ccc(S(C)(=O)=O)cc2)cs1", "note": "(centres undefined)", "Potency": "active: 9.28 µM"}
{"molecule": "COc1ccc(C(=O)NCc2cccc(Cl)c2)cc1S(=O)(=O)N1CCOCC1", "Potency": "inconclusive [inhibitor, single point]"}
{"molecule": "COc1ccc(N2CC(C(=O)N[C@@H](CC(C)C)C(=O)NC3CCCCC3)CC2=O)cc1", "note": "(some centres undefined)", "Potency": "inconclusive [inhibitor, single point]"}
{"molecule": "COc1cccc(/C=C2/SC(=S)N(CCC(=O)N3CCOCC3)C2=O)c1", "Potency": "inconclusive [inhibitor, partial curve]"}
{"molecule": "C[n+]1cccc2c(Br)ccc([O-])c21", "Potency": "inconclusive [inhibitor, full curve, poor fit]"}
{"molecule": "CCCCc1ccc(S(=O)(=O)N2CCC3(CC2)OCCO3)cc1", "Potency": "inactive"}
{"molecule": "Cc1cc(Cl)ccc1N(CC(=O)NCc1ccccc1)S(C)(=O)=O", "Potency": "inactive"}
{"molecule": "COc1ccc(Cc2noc(CN3CCN(C4CCc5ccccc5C4)CC3)n2)cc1OC", "note": "(centres undefined)", "Potency": "inconclusive [inhibitor, single point]"}
{"molecule": "O=C(NCc1ccc(Cl)cc1)C1CCC(CNc2c(N3CCCCC3)c(=O)c2=O)CC1", "note": "(centres undefined)", "Potency": "inconclusive [inhibitor, single point]"}
{"molecule": "COc1cccc2sc3ccc(NCCC4CCCN4C)cc3c(=O)c12", "note": "(centres undefined)", "Potency": "inconclusive [inhibitor, partial curve]"}
{"molecule": "O=c1[nH]c(SCc2ccc([N+](=O)[O-])cc2)nc2[nH]ncc12", "Potency": "inconclusive [inhibitor, full curve, poor fit]"}
{"molecule": "CCCCc1ccc(NC(=S)NCCN2CCOCC2)cc1", "Potency": "inactive"}
{"molecule": "CCOC(=O)c1cnc(-n2nc(C)cc2C)nc1NNc1ncc(-c2ccccc2)cn1", "Potency": "active: 3.29 µM"}
{"molecule": "O=C(O)c1ccc(NC2=C(Cl)C(=O)c3ccccc3C2=O)cc1", "Potency": "inconclusive [inhibitor, single point]"}
{"molecule": "Cc1ccnc(Sc2ccc([N+](=O)[O-])cn2)n1", "Potency": "inconclusive [inhibitor, single point]"}
{"molecule": "O=C(COc1ccc(Cl)cc1Cl)NC(=O)N1CCOCC1", "Potency": "inactive"}
{"molecule": "Cc1ccc(NC(=O)C2CCN(S(=O)(=O)c3ccc4[nH]c(=O)oc4c3)CC2)cc1F", "Potency": "inconclusive [inhibitor, single point]"}
{"molecule": "CCOCCCNC(=O)c1cc2c(=O)n3cccc(C)c3nc2s1", "Potency": "inconclusive [inhibitor, single point]"}
{"molecule": "O=C(CNC(=O)c1ccco1)NC1CCCCCC1", "Potency": "inactive"}
{"molecule": "CC(=O)N/C(=C\\c1ccccc1)C(=O)OCc1cccc(S(=O)(=O)N(C)C)c1", "Potency": "inconclusive [inhibitor, single point]"}
{"molecule": "O=c1c(S(=O)(=O)c2ccc(Cl)cc2)cn(Cc2ccccc2)c2ccc(F)cc12", "Potency": "inconclusive [inhibitor, full curve, poor fit]"}
{"molecule": "COC(=O)c1ccccc1NC(=O)c1ccc(COc2cc(C)cc(C)c2)o1", "Potency": "inconclusive [inhibitor, single point]"}
{"molecule": "COc1cc2c(cc1OC)C(C(=O)NC(C)c1ccccc1)CC(=O)N2", "note": "(centres undefined)", "Potency": "inactive"}
{"molecule": "COc1ccc(C(=O)NCC(=O)N2CCN(c3ncccn3)CC2)cc1OC", "Potency": "inconclusive [inhibitor, single point]"}
{"molecule": "CCn1c(N2CCN(S(=O)(=O)c3ccc(OC)cc3)CC2)nc2ccccc21", "Potency": "inconclusive [inhibitor, single point]"}
{"molecule": "C/C=C(\\C)C(=O)N[C@@H](c1ccccc1)[C@@H](O)C(=O)O[C@H]1C[C@@]2(O)[C@@H](OC(=O)c3ccccc3)C3[C@](C)(C(=O)[C@H](OC(C)=O)C(=C1C)C2(C)C)[C@@H](O)C[C@H]1OC[C@@]31OC(C)=O", "note": "(some centres undefined)", "Potency": "inconclusive [inhibitor, full curve, poor fit]"}
{"molecule": "Cc1cccc(OCCCC(=O)Nc2ccc(Cl)c(S(=O)(=O)N3CCOCC3)c2)c1", "Potency": "inconclusive [inhibitor, partial curve, poor fit]"}
{"molecule": "CN(C(=O)c1ccc(NC(=O)Cc2ccc(NC(=O)C3CCCN(C(=O)C4CCCCC4)C3)cc2)cc1)C1CC1", "note": "(centres undefined)", "Potency": "inconclusive [inhibitor, single point]"}
